System: Pisum sativum var Early Onward
Settings: non-inoculated plants

Question: Which “accumulation of 2,4-D within the stem/leaf tissue, of the total 2,4-D applied” value does the source give for `O=C(O)COc1ccc(Cl)cc1Cl` [2,4-D, 2,4-dichlorophenoxyacetic acid] here?
Answer: 24-35%
